Source: publication PMC10668032
The other results are listed elsewhere or left out. At the low end of the ranking the order means little.

target: SIX1-Q177R homeodomain (UniProt Q15475); test: universal protein binding microarray; conditions: Universal all-10-mer PBM (8x60K, AMADID 030236), 300 nM GST-tagged protein, Alexa Fluor 488 anti-GST; buffer, salt, pH and temperature not stated; high values mean tight binding; most listed sequences are background and not binding sites; double strand, one strand shown

| Sequence | binding signal [E-score] |
| --- | --- |
| CATCACTC | -0.0219 |
| AATGAAGC | -0.269 |
| AAATTCTA | -0.189 |
| CAAGTCCC | -0.198 |
| TACGAAGA | -0.109 |
| CTGACTAA | -0.247 |
| CACCTTAC | 0.248 |
| AATATTTA | -0.0862 |
| CACGGTGG | 0.26 |
| AAAGACGT | -0.321 |
| GTCGCCTA | 0.0326 |
| TAACCATA | -0.207 |
| CCTCGCCG | 0.132 |
| ATCGTGTG | 0.229 |
| CAAGGGCG | -0.0931 |
| AAGATAGA | -0.114 |
| AAGTCTTG | -0.323 |
| CGTATGGC | -0.222 |
| CTCCGTGC | 0.083 |
| AGAAAGAC | -0.154 |
| AGCATGGC | -0.385 |
| ACCTGCGT | 0.0793 |

| Sequence | binding signal [E-score] |
| --- | --- |
| CTAAAGCA | -0.11 |
| CCCCCAGC | 0.0476 |
| CAGCGTCA | 0.0509 |
| TAACAGTA | -0.243 |
| GGGATCAA | 0.189 |
| ATCCTGAC | 0.0853 |
| ATGTAGCA | -0.248 |
| CGCAACCG | -0.041 |
| AAACCGGC | 0.0182 |
| TAGGAGCA | -0.0738 |
| CACGCCGA | 0.194 |
| TAAGGAGA | -0.142 |
| ACGTCCGA | -0.0129 |
| TACTCCTA | 0.0872 |
| ATCTATGA | -0.0215 |
| ATAATAGG | -0.12 |
| CACTAATA | 0.162 |
| ATGCAAAA | -0.257 |
| GCTCCCCA | -0.0456 |
| CTGCAGCA | 0.057 |
| AACTACAG | -0.191 |
| GAAGATAA | 0.0363 |

| Sequence | binding signal [E-score] |
| --- | --- |
| GCAGGAGA | -0.0678 |
| GACCGACA | 0.00513 |
| AATCCTTC | -0.125 |
| AAGGCTAT | -0.284 |
| ACGCGGCC | -0.0557 |
| AAGATTAT | -0.239 |
| CGATTTCC | -0.0584 |
| AAACGCAG | -0.111 |
| GTCACTAA | 0.0426 |
| GCTTTCTA | -0.0518 |
| AAAGATGC | -0.151 |
| TAAATATA | -0.0572 |
| AACTGCGC | -0.195 |
| GGAAAGCC | -0.214 |
| TTCGGCAA | 0.0441 |
| GACTTGGA | -0.133 |
| CGTGGGAA | -0.197 |
| AATCAACC | -0.105 |
| CGCTCACA | 0.166 |
| AAGAAACA | -0.00752 |
| AAATCCCT | -0.143 |
| AAGCCTCG | -0.0203 |

| Sequence | binding signal [E-score] |
| --- | --- |
| GGTCCTAA | -0.143 |
| AAAGGCGA | -0.132 |
| CCTGCCCG | 0.13 |
| AAGGGAAC | -0.00861 |
| CTACGTAC | -0.00773 |
| GGTTTTAC | 0.0525 |
| AACGAATC | -0.0118 |
| AGCCCCAC | 0.149 |
| AAACGTGC | -0.23 |
| GACTGGTA | -0.115 |
| AGTTCCGC | -0.212 |
| GAGTCCGC | -0.0132 |
| ACCCAATA | 0.077 |
| ATGACAAG | 0.0161 |
| CCGAAGCG | -0.0138 |
| ATTCAGTC | -0.24 |
| ATCGAAAG | -0.122 |
| AGTTGCTC | -0.0914 |
| GTGGGACA | 0.171 |
| GACAAGCC | 0.00254 |
| AAGTTCTC | -0.229 |
| AGCGAGTG | 0.268 |

| Sequence | binding signal [E-score] |
| --- | --- |
| TAATTCGA | -0.221 |
| GAGTAAAA | 0.0792 |
| CAGTGATA | -0.0632 |
| CCAAGTGA | -0.132 |
| ATCCACGA | -0.00615 |
| GTTAGTAA | -0.0528 |
| GCCAGTAA | -0.216 |
| GACTCTGC | -0.0533 |
| CGCTAGGC | -0.0922 |
| CCACGACA | 0.27 |
| ATGCAGAA | -0.255 |
| GCACTAGA | -0.197 |
| GTTCTAAA | -0.0375 |
| CTGTATTC | -0.173 |
| ACCCTGAT | 0.12 |
| CCGAACTA | -0.0348 |
| AGGGATAT | -0.0023 |
| ACAGAAGT | -0.251 |
| AGAATCGG | 0.0575 |
| CTAGGACA | 0.162 |
| ACCAAATG | 0.13 |
| TCACCGGA | 0.076 |
